This is a selection; strong and weak results do not stand in their true shares. The list includes weakly bound sequences.

This experiment deals with T1, GST-Nv-NF-kB (Cys allele) (UniProt E5G601).
T1 sequence: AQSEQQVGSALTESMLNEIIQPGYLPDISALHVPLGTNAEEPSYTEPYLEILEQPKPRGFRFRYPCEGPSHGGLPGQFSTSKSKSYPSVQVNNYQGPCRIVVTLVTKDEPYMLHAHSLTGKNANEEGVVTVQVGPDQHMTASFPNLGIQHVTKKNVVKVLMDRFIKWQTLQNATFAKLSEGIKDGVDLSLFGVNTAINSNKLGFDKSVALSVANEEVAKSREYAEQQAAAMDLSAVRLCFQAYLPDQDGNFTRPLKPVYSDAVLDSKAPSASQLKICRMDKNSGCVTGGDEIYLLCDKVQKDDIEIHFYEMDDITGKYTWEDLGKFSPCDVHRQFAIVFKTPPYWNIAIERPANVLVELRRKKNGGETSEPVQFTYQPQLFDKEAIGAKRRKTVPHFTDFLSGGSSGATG
Put plainly: protein-binding microarray (PBM). Conditions: PBM: ~300 nM protein, 6 mM HEPES pH 7.8, 80 mM KCl, 0.5 mM EDTA, 0.5 mM EGTA, 6% glycerol, 35 ng/ul poly-dIdC, 1% milk, 1 h, room temperature; Ap Aiptasia and Nv Nematostella (sea anemones) / Co Capsaspora / Aq Amphimedon (sponge) / Dm Drosophila / Hu human; RHD is the Rel homology domain; high values mean tight binding; most listed sequences are background and not binding sites; double strand, one strand shown.
Sequence “CCGATTAACATCACAAGTTTCCCTGATGTTAATCGGGTCTTGATTCGCTTGACGCTGCTG” displayed a binding signal of 5.33 z-score.

In the case of “CCGATTAACATCAGGCAACCCCATGATGTTAATCGGGTCTTGATTCGCTTGACGCTGCTG”, the binding signal is -0.12 z-score.

For “CCGATTAACATCAGGTAACCCCATGATGTTAATCGGGTCTTGATTCGCTTGACGCTGCTG”, the binding signal was found to be 0.775 z-score.

The sequence “CCGATTAACATCAGTACTCCCCATGATGTTAATCGGGTCTTGATTCGCTTGACGCTGCTG” registered a binding signal of 2.81 z-score.

“CCGATTAACATCAAGCAATTCCCTGATGTTAATCGGGTCTTGATTCGCTTGACGCTGCTG” registered a binding signal of 4.28 z-score.

As for “CCGATTAACATCAGGGAAAGAAATGATGTTAATCGGGTCTTGATTCGCTTGACGCTGCTG”, the binding signal worked out at 3.74 z-score.

In turn, “CCGATTAACATCACAATACCCCCTGATGTTAATCGGGTCTTGATTCGCTTGACGCTGCTG” came in with a binding signal of 4.51 z-score.

“CCGATTAACATCAAGGGAAACCCTGATGTTAATCGGGTCTTGATTCGCTTGACGCTGCTG” yielded a binding signal of 5.3 z-score.

For the sequence “CCGATTAACATCAAATTCCCACATGATGTTAATCGGGTCTTGATTCGCTTGACGCTGCTG”, the binding signal came to 3.53 z-score.

Turning to “CCGATTAACATCAGGGGCTTTTATGATGTTAATCGGGTCTTGATTCGCTTGACGCTGCTG”, the binding signal came to 9.51 z-score.

“CCGATTAACATCAGGAGTTTCCCTGATGTTAATCGGGTCTTGATTCGCTTGACGCTGCTG” gave a binding signal of 6.51 z-score.

The sequence “CCGATTAACATCAGGGGGTTTAATGATGTTAATCGGGTCTTGATTCGCTTGACGCTGCTG” returned a binding signal of 5.26 z-score.

Source of the values: paper PMC5700166.
